# The full ranking holds about 33,000 sequences; the median of “E-score (-0.5 to 0.5)” is about -0.013, and the highest 2% start at about 0.3. This is one part of the list.
# Target: T1, Msn1 (UniProt P22148)
# T1 sequence: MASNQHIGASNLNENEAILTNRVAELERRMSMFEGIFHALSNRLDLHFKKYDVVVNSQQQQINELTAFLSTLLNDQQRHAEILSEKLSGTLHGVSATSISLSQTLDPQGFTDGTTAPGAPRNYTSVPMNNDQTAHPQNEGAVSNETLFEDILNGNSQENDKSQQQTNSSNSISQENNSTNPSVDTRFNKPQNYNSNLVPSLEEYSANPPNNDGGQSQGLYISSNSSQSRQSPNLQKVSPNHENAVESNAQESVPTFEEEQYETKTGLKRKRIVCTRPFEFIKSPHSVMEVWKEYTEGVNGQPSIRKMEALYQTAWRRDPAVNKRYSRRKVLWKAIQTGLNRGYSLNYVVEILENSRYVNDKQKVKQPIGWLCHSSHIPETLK
# Assay: PBM E-score (8-mer binding enrichment) (E-score (-0.5 to 0.5)); higher = stronger / more preferred TF binding; most listed sequences are background and not binding sites
# Details: protein concentration: 200 nM; construct: GST-full length
# Description: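 Universal 'all 10-mer' protein binding microarrays (Agilent AMADID 015681) probed with GST-tagged S. cerevisiae TFs (full-length or DBD) made by in vitro transcription/translation (PURExpress), about 100-200 nM. Bound TF was detected with fluorescent anti-GST. Each ungapped 8-mer (which stands for itself and its reverse complement) is scored by the PBM enrichment score (E-score), a modified Wilcoxon-Mann-Whitney statistic from -0.5 to +0.5, computed with the Universal PBM Analysis Suite. Scale: above 0.35 generally sequence-specific binding.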
row,Sequence,PBM E-score
1,AGGTCCGG,0.041
2,ACAGAACG,-0.0147
3,CTCCGCTA,-0.184
4,AAGTCCGC,0.191
5,CGCCTGCC,-0.287
6,GCTACCGA,-0.00569
7,AAGCTCAT,-0.152
8,GCTCTCAC,-0.29
9,CCTCACCC,-0.21
10,AGGATCCA,-0.078
11,AACCTCTT,0.109
12,AACGCTAC,-0.137
13,GCAAATCA,0.0766
14,ATATCGTC,0.00135
15,CCGAGAAC,0.167
16,ACGCTGCA,-0.169
17,GGATCGAA,-0.0395
18,CAACCGTA,-0.205
19,AAATAGCG,0.187
20,CGCTATCA,-0.112
21,GACGCACC,0.0166
22,CAAAACTA,0.193
23,AATCCTCA,-0.23
24,AAGCTGCC,-0.0824
25,ACCTTGTA,0.0634

row,Sequence,PBM E-score
1,GTCGGTGA,-0.109
2,GATCCCTA,-0.227
3,CACGAAAA,0.233
4,AACTCCCA,-0.0752
5,ACACCTTG,0.0444
6,AGGCCTAA,0.126
7,ATAATATG,0.137
8,CCCCTGTC,-0.221
9,CCGTTTTC,0.072
10,AACCCCGT,0.0235
11,ACACTTAA,0.00712
12,ATGTAGGG,-0.0843
13,CTTGCTAC,0.00039
14,ACTGGATA,0.0615
15,AGTTAATG,0.138
16,ACGTGGTC,-0.153
17,CCCACGCA,-0.0468
18,ATTAATCC,0.0592
19,TCTGCTAA,0.0829
20,CATCGCGC,-0.0919
21,GCCTACGC,-0.059
22,CTCGCAAC,-0.0112
23,AATAATAG,-0.0638
24,ACGTGGTA,-0.0538
25,CAAAAAAG,0.203

row,Sequence,PBM E-score
1,AAAGTATG,0.00803
2,GATACCAA,0.0965
3,CTTGACGA,-0.0252
4,CGAGTCGA,-0.0283
5,TCGTTTCA,0.151
6,CGGGAGAG,-0.127
7,ACATTGCC,0.172
8,GATACTCC,-0.0781
9,AGCGAATC,0.03
10,AAACAGTC,-0.209
11,CAGTATAA,0.236
12,GCCTAGAC,-0.124
13,AAATTGAA,0.147
14,AGGAGGGG,-0.26
15,GCACATTA,-0.0601
16,AACTCGCA,0.0398
17,CTCACGAA,-0.0922
18,AAGAGAAC,-0.00781
19,CCTAGCCA,-0.0603
20,ATATGGGA,-0.0277
21,CCATGGAG,-0.119
22,CAAAGAAG,0.033
23,AGCGGGTC,-0.119
24,GACAGAAA,0.291
25,GACAGCAC,0.13

row,Sequence,PBM E-score
1,CGCAGCAG,0.0309
2,AGGCAGGA,0.00037
3,GTGCCGAA,0.0855
4,AGTTGTAC,0.157
5,CGAGAGTC,-0.131
6,AAGAACAG,-0.0452
7,ATCTGTCC,0.387
8,CGGCTTAC,0.051
9,AAGGAAAT,-0.00737
10,ACTCCTCT,-0.137
11,CTGGGCAC,-0.185
12,CATACTAA,0.234
13,CTATTCTC,-0.0396
14,ACTGATAA,0.103
15,TAGAGATA,-0.0154
16,CCGACGTC,0.0553
17,CGCTCTTA,0.176
18,CTGACCCA,-0.239
19,GCGGCACC,0.00386
20,GCAAGTTA,0.103
21,GCTGCGAC,0.155
22,CCCGTTGC,-0.0761
23,TGTGCACA,-0.065
24,GCAGACGA,-0.0528
25,CCGTTAGA,-0.0404

row,Sequence,PBM E-score
1,CAACGTAG,0.00588
2,ATACGACG,0.111
3,AAGTTAGC,0.0899
4,ATATTCCG,0.321
5,CGCGGAGC,-0.0474
6,CATAGTGC,-0.136
7,GGTTTGAA,-0.00539
8,GTCCGAAA,0.312
9,ACACCCGT,-0.0118
10,GGGCTATA,-0.313
11,CGCAAGGA,0.167
12,AGTGTGTC,0.256
13,ATTAGAGA,0.00489
14,CGAACAAG,0.184
15,CCAGTCAG,-0.209
16,GCATGATA,0.0628
17,ACCACTAA,0.143
18,AAGGTGGT,-0.131
19,ACGACAAT,0.24
20,CACGACAG,-0.0053
21,GCCTATTA,0.00604
22,CCCTGGAC,0.0807
23,AATTCTCC,0.071
24,CATGAACA,0.21
25,ACAGACGT,0.0589

row,Sequence,PBM E-score
1,GCCACCCC,-0.283
2,CACATATA,0.0314
3,CATTGATA,0.0395
4,TGAAGTCA,-0.0584
5,AATATTGG,-0.0454
6,CGGATGCC,-0.0295
7,AGCCCGTC,-0.231
8,AAAACGAA,0.167
9,AATGGTTG,-0.0125
10,CGTTAGAC,-0.0528
11,ATTCGCAC,-0.0102
12,CAAACTCG,-0.0776
13,AGGCCGCG,0.0587
14,AGTATGAG,0.0158
15,GAACGGAA,-0.00404
16,CAAATGAG,-0.106
17,ACCGGAAT,-0.03
18,GATAGAGA,0.0141
19,AGGTGCGG,-0.191
20,TATATAGA,0.177
21,GGTGCACA,-0.0287
22,ATCGAAAG,0.106
23,AAACATTT,0.151
24,AAGACAGA,0.216
25,CTTAAGGA,0.14

row,Sequence,PBM E-score
1,ACGTGGCG,-0.0185
2,ATGCTCTC,-0.153
3,GTTCGAAC,0.14
4,AGTCGAAG,0.00794
5,ATACCCGC,-0.103
6,CTACGGGA,-0.0335
7,ACCTCGCT,0.0267
8,AGGAACCC,-0.0872
9,ACCGCACT,-0.0595
10,CCTATTTA,-0.0516
11,CAACAGGA,-0.138
12,AATAACAG,0.151
13,CCTCAAGC,-0.277
14,GTGGACTA,0.144
15,GGCAGGCA,-0.0842
16,CAAATAAA,0.224
17,GTGCGGGA,-0.0606
18,ACGCGCCT,-0.0484
19,AAGCGGTG,-0.174
20,AAGGTATT,0.0165
21,CCCATGAC,-0.00547
22,CAATAGTC,0.0311
23,ACCGGATA,-0.0231
24,AAAACGTT,0.154
25,ATGTTACC,0.157

row,Sequence,PBM E-score
1,CTAATGAG,-0.0943
2,CCGCACGA,0.0364
3,ATAGCACG,-0.198
4,AGTGCGCG,-0.124
5,GTGATCAA,0.0353
6,AGCTCATA,0.113
7,TTCGTAAA,0.0452
8,AGGGAGCA,-0.347
9,AGCATTGA,-0.022
10,ACACAACT,0.181
11,AAGAGGCG,-0.118
12,AAGCACTT,-0.0667
13,AGAGCCAC,-0.28
14,CTGTAGGA,0.0213
15,CGTGACCA,0.108
16,GCCTAGCC,-0.234
17,GCCCGTGA,-0.158
18,AATAGTCG,0.0523
19,GCGAGCCC,-0.236
20,CCTAGATA,-0.167
21,CGGTAACA,0.17
22,CACATCGA,-0.00084
23,AAGAACAT,0.198
24,CAAAGTTG,0.101
25,GTCCGAGA,0.326

row,Sequence,PBM E-score
1,ATATTCGC,0.0417
2,AAGGGGAT,-0.0523
3,CGGCTAGC,0.024
4,TCCCCGCA,0.00418
5,AGTCTTGG,0.0468
6,CATTGGCA,0.0733
7,GGCCAAAC,-0.141
8,AACTCACT,-0.275
9,CAGATAGG,-0.0621
10,AGCGATAC,-0.0221
11,CTGAATAC,-0.00926
12,TCATGCAA,0.0129
13,AAGTCGAT,0.0478
14,AAATCTCC,-0.234
15,CAGAAAAG,0.159
16,ACTCATCT,0.0848
17,GATACCCC,0.0625
18,CAATTCGG,0.0346
19,CTGGAGAA,0.00098

# Source: the supplement of paper PMC3334620
